We go through 61 molecules from the supplement of paper PMC9446081.

Screen size: about 39,000 compounds; about 220 (0.56%) showed activity. The list shows a part of the results.
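Note: static incubation at 37 °C against the wild-type strain, values averaged over two biological replicates.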

The test system of the assay is Escherichia coli K-12 BW25113. In words: relative growth (OD600 normalised to plate interquartile mean) (fraction); higher = less growth inhibition, active = 0.2 or less. To be noted: 50 µM; LB; incubation time: overnight (16-24 h).
For `C[C@@H]1CCCCO[C@@H](CN(C)S(=O)(=O)c2ccc(Cl)cc2)[C@@H](C)CN([C@@H](C)CO)C(=O)c2cc(NC(=O)Nc3ccc(C(F)(F)F)cc3)ccc2O1`, the relative growth was inactive: 0.985.

As to `COCC#Cc1cnc2c(c1)C(=O)N([C@H](C)CO)C[C@@H](C)[C@@H](CN(C)C(=O)c1cnccn1)O2`, the relative growth was inactive: 0.97.

For `Cc1noc(C)c1NC(=O)Nc1ccc2c(c1)C(=O)N([C@H](C)CO)C[C@@H](C)[C@H](CN(C)Cc1ccc3c(c1)OCO3)OCCCC[C@H](C)O2`, the relative growth was inactive: 1.

As for `C[C@H]1CN([C@@H](C)CO)C(=O)c2cccc(NC(=O)Nc3cccc4ccccc34)c2O[C@H]1CN(C)Cc1ccccc1`, the relative growth was inactive: 1.

On to `C[C@@H]1CCCCO[C@@H](CN(C)S(=O)(=O)c2cccs2)[C@H](C)CN([C@H](C)CO)C(=O)c2cc(NS(=O)(=O)c3ccc(Cl)cc3)ccc2O1`, for which the relative growth was inactive: 1.03.

In the case of `C[C@H](CO)N1C[C@H](C)[C@@H](CN(C)Cc2ccncc2)Oc2cc(C#CC(C)(C)O)ccc2S1(=O)=O`, the relative growth is inactive: 0.991.

Take `NC1=NNC(=O)C1`: the relative growth was inactive: 0.99.

For `COc1ccc2c3c(n(c2c1)C)[C@H](CO)N(C[C@]13CCN(CC1)C(=O)c1ccccc1F)C(=O)Nc1ccc(cc1)F`, the relative growth is inactive: 1.06.

Regarding `COC(=O)[C@H](Cc1ccc(-n2cc(-c3ccc(C(=O)NO)s3)nn2)cc1)N1CC2=C[C@H]([C@@H](O)Cc3ccccc3)n3c(=O)n(C)c(=O)n3[C@@H]2[C@@H](C2CC2)O1`, the relative growth is inactive: 1.

On to `CCN1C[C@]23CN(C(=O)c4cnccn4)C[C@@H](C[C@H]2S1(=O)=O)O3`, for which the relative growth is inactive: 0.985.

Regarding `Cl.OC(CCN1CCCC1)(c1ccccc1)C1CCCCC1` (stereo unspecified), the relative growth was inactive: 0.931.

Consider `CCC(=O)N[C@@H]1C=C[C@H](CC(=O)OC)O[C@@H]1CO`, for which the relative growth is inactive: 1.02.

Take `C[C@@H]1CN([C@H](C)CO)C(=O)Cc2cc(NC(=O)CCN3CCOCC3)ccc2O[C@@H]1CN(C)S(=O)(=O)c1cccs1`: the relative growth was inactive: 0.987.

With `C=C(C)[C@@H]1CC[C@]2(COC(C)=O)CC[C@]3(C)[C@H](CC[C@@H]4[C@@]5(C)CC[C@H](OC(C)=O)C(C)(C)[C@@H]5CC[C@]43C)[C@@H]12`, the relative growth is inactive: 0.942.

As for `C=CCSc1n[nH]c(=O)[nH]c1=O`, the relative growth was inactive: 0.915.

Consider `Cn1c[n+](NC(=O)c2ccc(C(=O)ON3C(=O)CCC3=O)cc2)cn1`, for which the relative growth was inactive: 1.03.

Turning to `C[C@@H]1CCCCO[C@H](CN(C)Cc2ccc(C(F)(F)F)cc2)[C@@H](C)CN([C@@H](C)CO)C(=O)c2cc(NC(=O)Nc3ccc(F)cc3)ccc2O1`, the relative growth was inactive: 1.01.

For `C[C@@H]1CCCCO[C@H](CN(C)C(=O)Nc2ccc3c(c2)OCO3)[C@H](C)CN([C@@H](C)CO)C(=O)c2cc(NC(=O)CCC(F)(F)F)ccc2O1`, the relative growth is inactive: 0.977.

With `CCCCC(CC)COc1ccc(-c2nc(-c3ccc(OC)cc3)nc(-c3ccc(OCC(CC)CCCC)cc3O)n2)c(O)c1` (stereo unspecified), the relative growth was inactive: 1.17.

Regarding `C[C@@H]1CN([C@H](C)CO)C(=O)c2cc(NC(=O)Nc3ccc4c(c3)OCO4)ccc2O[C@@H](C)CCCCO[C@@H]1CN(C)S(=O)(=O)c1cccs1`, the relative growth is inactive: 1.04.

On to `C[C@H]1CCN=C(N)S1`, for which the relative growth was inactive: 0.969.

As to `C[C@H]1CN([C@@H](C)CO)C(=O)Cc2cc(NC(=O)Nc3ccc(F)cc3)ccc2O[C@H]1CN(C)C(=O)Nc1cccc2ccccc12`, the relative growth was inactive: 0.958.

Turning to `C[C@@H]1CCCCO[C@H](CN(C)S(C)(=O)=O)[C@@H](C)CN([C@@H](C)CO)C(=O)c2cc(NC(=O)c3ccncc3)ccc2O1`, the relative growth was inactive: 1.02.

Regarding `COc1cccc(NC(=O)N(C)C[C@H]2Oc3ncc(C#Cc4ccncc4)cc3C(=O)N([C@@H](C)CO)C[C@@H]2C)c1`, the relative growth is inactive: 0.996.

Consider `O=C(c1ccncc1)N1C[C@@H]2[C@H](c3ccccc31)[C@H](CO)N2C(=O)CN1CCOCC1`, for which the relative growth is inactive: 1.

For the molecule `CCC(=O)N1C[C@]2(CN(C2)C(=O)CN2CCOCC2)c2c([nH]c3cc(ccc23)OC)[C@@H]1CO`, the relative growth is inactive: 1.01.

With `C[C@H](CO)N1C[C@H](C)[C@@H](CN(C)Cc2ccc(C(=O)O)cc2)Oc2ccc(NC(=O)C3CC3)cc2C1=O`, the relative growth is inactive: 0.996.

As for `CN(CCO)c1ccccn1`, the relative growth was inactive: 0.987.

For `Cc1ccc(S(=O)(=O)Nc2ccc3c(c2)C(=O)N([C@H](C)CO)C[C@@H](C)[C@H](CN(C)S(=O)(=O)c2ccc(C)cc2)OCCCC[C@H](C)O3)cc1`, the relative growth is inactive: 0.988.

With `C[C@H](CO)N1C[C@H](C)[C@@H](CN(C)S(=O)(=O)c2cn(C)cn2)Oc2ccc(NS(=O)(=O)c3ccccc3)cc2CC1=O`, the relative growth was inactive: 1.

`COCC#Cc1cnc2c(c1)C(=O)N([C@@H](C)CO)C[C@H](C)[C@H](CN(C)C(C)=O)O2`: the relative growth was inactive: 0.97.

In the case of `COc1ccc(-c2cc(=O)c3c(OC)c(OC)c(OC)c(OC)c3o2)cc1OC`, the relative growth is inactive: 0.834.

Take `C[C@@H]1CN([C@@H](C)CO)C(=O)Cc2cc(NC(=O)Nc3ccc(F)cc3)ccc2O[C@@H]1CN(C)CC1CCCCC1`: the relative growth is inactive: 0.967.

As for `C[C@@H]1CN([C@@H](C)CO)C(=O)c2cc(NS(=O)(=O)c3cccs3)ccc2O[C@@H](C)CCCCO[C@@H]1CN(C)C(=O)c1ccccc1`, the relative growth is inactive: 1.01.

In the case of `COc1ccc(S(=O)(=O)Nc2ccc3c(c2)CC(=O)N([C@H](C)CO)C[C@H](C)[C@H](CN(C)S(=O)(=O)c2cn(C)cn2)O3)cc1`, the relative growth was inactive: 0.971.

Take `C[C@@H]1CN([C@@H](C)CO)C(=O)Cc2cc(NS(=O)(=O)c3cn(C)cn3)ccc2O[C@@H]1CN(C)S(=O)(=O)c1ccc(Cl)cc1`: the relative growth was inactive: 0.984.

Consider `COCC(=O)Nc1ccc2c(c1)C(=O)N(C)[C@@H]1CC[C@H](CC(=O)NC3Cc4ccccc4C3)O[C@@H]1CO2`, for which the relative growth was inactive: 1.03.

Regarding `Cc1ccc(S(=O)(=O)Nc2ccc3c(c2)C(=O)N([C@@H](C)CO)C[C@H](C)[C@@H](CN(C)Cc2ccncc2)OCCCC[C@H](C)O3)cc1`, the relative growth is inactive: 0.98.

On to `CC(C)[C@H]1COC(=O)N1`, for which the relative growth is inactive: 0.987.

Regarding `Cc1ccc(S(=O)(=O)Nc2ccc3c(c2)CC(=O)N([C@@H](C)CO)C[C@@H](C)[C@H](CN(C)Cc2ccncc2)O3)cc1`, the relative growth was inactive: 1.01.

For the molecule `C[C@@H]1CN([C@@H](C)CO)C(=O)c2cc(NS(=O)(=O)c3ccccc3)ccc2O[C@H]1CN(C)S(=O)(=O)c1cn(C)cn1`, the relative growth was inactive: 0.9.

Regarding `C[C@H]1CN([C@@H](C)CO)C(=O)c2cccc(NC(=O)Nc3ccc(C(F)(F)F)cc3)c2O[C@H]1CN(C)C(=O)Nc1cccc2ccccc12`, the relative growth is inactive: 0.937.

Consider `O=C(C[C@@H]1CC[C@@H](NC(=O)c2cccnc2)[C@H](CO)O1)NCCN1CCCCC1`, for which the relative growth was inactive: 0.987.

As to `COc1ccc(O)c(N)c1`, the relative growth is inactive: 0.989.

For `C[C@H](CO)N1C[C@H](C)[C@@H](CN(C)Cc2ccc(Oc3ccccc3)cc2)Oc2ccc(NS(=O)(=O)c3cccs3)cc2CC1=O`, the relative growth is inactive: 0.96.

Turning to `COC(CN(C)C(=O)c1cn(C)c2ccc(S(=O)(=O)N3CCOCC3)cc2c1=O)OC`, the relative growth is inactive: 0.971.

As for `C[C@H](CO)N1C[C@H](C)[C@@H](CN(C)C(=O)Nc2ccc(F)cc2)OCCCC[C@H](C)Oc2ccc(NC(=O)Nc3ccc(C(F)(F)F)cc3)cc2C1=O`, the relative growth was inactive: 1.03.

For the molecule `c1ccc(-c2nc(C34CC5CC(CC(C5)C3)C4)cs2)cc1`, the relative growth was inactive: 1.03.

As to `Cn1cnc(S(=O)(=O)N2C[C@@H](O)COC[C@@H]3O[C@@H](CC(=O)NC4CCC4)CC[C@H]32)c1`, the relative growth was inactive: 0.999.

For the molecule `COc1ccc(S(=O)(=O)N(C)C[C@@H]2Oc3ccc(NC(=O)CCCN(C)C)cc3CC(=O)N([C@H](C)CO)C[C@H]2C)cc1`, the relative growth was inactive: 0.973.

Take `COc1ccc(C#Cc2cccc(-c3nc(C(=O)N[C@@H]4CCN(Cc5ccccc5)C4)cc4c3[C@H](CCO)N(S(=O)C(C)(C)C)C4)c2)cc1OC` (stereo partly specified): the relative growth was inactive: 1.01.

Consider `CO[C@H]1CN(C)C(=O)c2cc(NC(=O)Nc3cccc(Cl)c3)ccc2OC[C@H](C)N(C(=O)Nc2c(C)noc2C)C[C@H]1C`, for which the relative growth was inactive: 0.989.

For the molecule `Cc1noc(C)c1NC(=O)N(C)C[C@H]1Oc2ccc(NC(=O)NC(C)C)cc2CC(=O)N([C@@H](C)CO)C[C@H]1C`, the relative growth is inactive: 1.

`Cc1ccc(S(=O)(=O)N(C)C[C@@H]2OCCCC[C@H](C)Oc3ccc(NC(=O)Nc4c(C)noc4C)cc3C(=O)N([C@H](C)CO)C[C@@H]2C)cc1`: the relative growth was inactive: 0.99.

With `Cc1noc(C)c1NC(=O)Nc1ccc2c(c1)C(=O)N([C@H](C)CO)C[C@@H](C)[C@@H](CN(C)Cc1ccncc1)OCCCC[C@H](C)O2`, the relative growth is inactive: 0.976.

Turning to `CCCN1C[C@@H](C)[C@@H](OC)CN(C)C(=O)c2ccc(NS(=O)(=O)c3cn(C)cn3)cc2OC[C@@H]1C`, the relative growth is inactive: 0.997.

`C[C@@H]1CN([C@H](C)CO)C(=O)c2cccc(NC(=O)c3cnccn3)c2O[C@H]1CN(C)Cc1ccncc1`: the relative growth is inactive: 0.993.

Regarding `COc1ccc(NC(=O)Nc2ccc3c(c2)C(=O)N([C@@H](C)CO)C[C@H](C)[C@@H](CN(C)C(=O)Nc2ccc(F)cc2)OCCCC[C@H](C)O3)cc1`, the relative growth is inactive: 1.03.

As to `C=CCC[C@@H](Cc1ccc(F)cc1)C(=O)OC[C@@H](NC(=O)[C@H](CC=C)CC(=O)N(CCO)Cc1ccccc1)c1ccccc1`, the relative growth is inactive: 1.09.

For `C[C@@H]1CCCCO[C@@H](CN(C)S(=O)(=O)c2cccs2)[C@@H](C)CN([C@H](C)CO)C(=O)c2cc(NC(=O)CCCCCC(=O)Nc3ccccc3N)ccc2O1`, the relative growth is inactive: 1.03.

Regarding `Cc1cc(C)c(NC(=O)[C@@H](N)Cc2ccccc2)c(Cl)c1`, the relative growth is inactive: 1.02.
